{
  "source": "ChEMBL document CHEMBL4888484",
  "about": "“Replenishing the malaria drug discovery pipeline: Screening and hit evaluation of the MMV Hit Generation Library 1 (HGL1) against asexual blood stage Plasmodium falciparum ,using a nano luciferase reporter read-out” (2022)",
  "note": "Screen size: about 150,000 compounds; about 540 (0.36%) showed an effect of 50% or more. The list shows a part of the results.",
  "data": [
    {"test_system": "Plasmodium falciparum", "experiment": "Primary screen in NF54 nanoGlo assay, in single point, at 2uM, 72h; a lower Z score goes with more inhibition", "type": "functional, Erythrocyte", "details": "timepoint 72 hour", "units": {"% Inhibition": "%"}, "values": [
      {"smiles": "Cc1noc(C)c1CN(C)C(=O)Nc1cc(C(F)(F)F)c[nH]c1=O", "% Inhibition": 3, "Z score": -0.45},
      {"smiles": "Cc1nc(CN[C@@H](CCO)C(C)(C)C)sc1C", "% Inhibition": -1, "Z score": 0.15},
      {"smiles": "CCOC(=O)c1cc(CNC(=O)C(C)(C)C)ccc1Cl", "% Inhibition": 0, "Z score": -0.02},
      {"smiles": "CCCC(=O)OC[C@@H](O)CN(Cc1ccccc1C)CC(C)C", "% Inhibition": -7, "Z score": 0.88},
      {"smiles": "CN(C)S(=O)(=O)c1cccc(-c2nnc(C3(C)CCOCC3)o2)c1", "% Inhibition": -16, "Z score": 2.54},
      {"smiles": "Cc1cccc(NC(=O)NCC2CCC3(CC2)OCCO3)c1F", "% Inhibition": -7, "Z score": 0.72},
      {"smiles": "Cc1ccc(O[C@H]2CCOC[C@H]2NC(=O)c2sccc2N)cn1", "% Inhibition": 0, "Z score": 0.06},
      {"smiles": "CC(C)C(=O)N(CCCN1CCCC1)[C@H]1CCCN(C(=O)CC2CCCCC2)C1", "% Inhibition": -3, "Z score": 0.53},
      {"smiles": "O=C(CCC1CCN(C[C@H]2CCOC2)CC1)Nc1ccccc1Cl", "% Inhibition": -3, "Z score": 0.41},
      {"smiles": "Cc1ccc(S(=O)(=O)N2Cc3ccccc3C[C@H](C(=O)O)C2)cc1", "% Inhibition": -7, "Z score": 0.85},
      {"smiles": "CCOc1ccc(CCNC(=O)C2CCN(S(=O)(=O)c3c(C)nn(C)c3C)CC2)cc1OCC", "% Inhibition": -1, "Z score": 0.15},
      {"smiles": "Cc1nnc(-c2ccccc2-c2cccc3ccnn23)o1", "% Inhibition": -10, "Z score": 1.88},
      {"smiles": "Cc1c(NC(=O)c2ccc3[nH]c4c(c3c2)CCCC4)c(=O)n(-c2ccccc2)n1C", "% Inhibition": -3, "Z score": 0.5},
      {"smiles": "C[C@H](Nc1ccc(C#N)cn1)C(=O)Nc1ccccc1", "% Inhibition": -4, "Z score": 0.49},
      {"smiles": "CCN1C[C@H](NC(=O)c2ccc(-c3cc(C)ccc3Cl)cc2)[C@@H](OC)C1", "% Inhibition": -15, "Z score": 1.63},
      {"smiles": "CCOc1ccc(C(=O)N2CCCN(c3ccc(=O)n(-c4ccc(C)cc4)n3)CC2)cc1OCC", "% Inhibition": 15, "Z score": -1.73},
      {"smiles": "C[C@@H](c1ccon1)N(C)Cc1c[nH]nc1-c1ccc(-c2ccccc2)cc1", "% Inhibition": 1, "Z score": -0.11},
      {"smiles": "CCCS(=O)(=O)NC[C@H](OC)c1ccccc1C", "% Inhibition": 17, "Z score": -2.12},
      {"smiles": "Cc1ccc2ncnc(N(C)C3CCCCC3)c2c1", "% Inhibition": -1, "Z score": 0.19},
      {"smiles": "COc1cc(Br)c(CN(C)CCc2cnccn2)c(OC)c1", "% Inhibition": 0, "Z score": 0.05},
      {"smiles": "CC(C)C[C@H](NC(=O)Nc1cccc(-c2nnn(C)n2)c1)c1cccnc1", "% Inhibition": 1, "Z score": -0.1},
      {"smiles": "O=C1CCN(Cc2ccon2)c2ccc(F)cc2N1", "% Inhibition": -10, "Z score": 1.63},
      {"smiles": "O=C(CN1C(=O)CCC1=O)N1CCC(Oc2cnc3ccccc3n2)CC1", "% Inhibition": -14, "Z score": 2.66},
      {"smiles": "Cc1cccc(N2CCN(C(=O)c3ccc(OCc4cn5cccc(C)c5n4)cc3)CC2)c1", "% Inhibition": -13, "Z score": 2.65},
      {"smiles": "Cc1nc(C)c(Cc2ccc(Cl)cc2)c(N2CCN(C(=O)Nc3ccc(C(C)C)cc3)CC2)n1", "% Inhibition": -2, "Z score": 0.34},
      {"smiles": "O=C(OCc1cn(-c2ccccc2)nc1-c1ccc(Cl)cc1)c1cc(Cl)ccc1Cl", "% Inhibition": -7, "Z score": 1.15},
      {"smiles": "COc1cccc(CN2Cc3ncccc3C2=O)c1OC", "% Inhibition": -9, "Z score": 1.6},
      {"smiles": "Nc1c(Cl)ccc(C(=O)N2CC[S+]([O-])CC2)c1Cl", "% Inhibition": 7, "Z score": -1},
      {"smiles": "Cc1ccc(C)c(NS(=O)(=O)c2cc3c(cc2C)N(Cc2noc(C4CC4)n2)C(=O)CO3)c1", "% Inhibition": 5, "Z score": -0.63},
      {"smiles": "Cc1ccc(C(=O)N(Cc2ccco2)C2CC2)cn1", "% Inhibition": -3, "Z score": 0.26},
      {"smiles": "Cc1n[nH]c(NS(=O)(=O)c2cccnc2)c1C#N", "% Inhibition": -1, "Z score": 0.12},
      {"smiles": "CNS(=O)(=O)c1ccc(-c2ccc(N)cn2)cc1", "% Inhibition": -17, "Z score": 2.14},
      {"smiles": "Cc1cc(-c2ccc(C(=O)NC[C@H]3CCOC3)cc2)c2ccccc2n1", "% Inhibition": -5, "Z score": 0.8},
      {"smiles": "COCCN(C)S(=O)(=O)Nc1c(O)cccc1C(=O)OC", "% Inhibition": -5, "Z score": 0.6},
      {"smiles": "CC[C@H]1CCCN1C(=O)Nc1cccc(C(=O)N(C)C)n1", "% Inhibition": -8, "Z score": 1.3},
      {"smiles": "O=C(COc1ccc(Cl)cc1Cl)N1CCC2(CCO2)CC1", "% Inhibition": -1, "Z score": 0.12},
      {"smiles": "COc1ccc([C@@H]2CC(c3cccn3C)=NN2C(=O)CN(CCN2CCOCC2)C(=O)C2CCCC2)cc1", "% Inhibition": -14, "Z score": 1.44},
      {"smiles": "COc1ccccc1OCC(=O)NC1(c2cccs2)CCOCC1", "% Inhibition": 4, "Z score": -0.49},
      {"smiles": "CCCn1cc(CN2C[C@H](C)OCC2(C)C)cn1", "% Inhibition": -2, "Z score": 0.27},
      {"smiles": "COc1cccc(C(=O)N2CCC[C@H](Oc3nccnc3C#N)C2)c1OC", "% Inhibition": -7, "Z score": 1.21},
      {"smiles": "Cc1csc(C(C)(C)NCC(=O)N2CCC[C@H]2c2cccs2)n1", "% Inhibition": -12, "Z score": 1.16},
      {"smiles": "CC[C@H](C)NC(=O)Nc1cccc(C(N)=O)c1C", "% Inhibition": -7, "Z score": 0.65},
      {"smiles": "O=C(O)C[C@@H]1CCN(C(=O)Nc2ccccc2)C[C@@H]1Cc1nc2ccc(F)cc2[nH]1", "% Inhibition": -6, "Z score": 0.8},
      {"smiles": "OC1CCCC1Nc1ccc(OC(F)F)cn1", "note": "(stereo not given)", "% Inhibition": -5, "Z score": 0.49},
      {"smiles": "CC(C)Oc1cccc([C@@H](Nc2cnn(-c3ncccc3F)c2)C(F)F)c1", "% Inhibition": 1, "Z score": -0.21},
      {"smiles": "Cc1nc[nH]c1-c1nccn1Cc1nc2c(s1)CCCC2", "% Inhibition": -16, "Z score": 2.18},
      {"smiles": "CC[C@H](Oc1ccccc1C)c1nnc(-c2cn(C)nn2)o1", "% Inhibition": 8, "Z score": -1.06},
      {"smiles": "CCCc1cc(C(=O)N2CCC([C@]3(C)NC(=O)N(Cc4ccsc4)C3=O)CC2)n(C)n1", "% Inhibition": -4, "Z score": 0.79},
      {"smiles": "CC(C)n1c([C@H]2CCN(C(=O)Cc3cccc(F)c3)C2)nc2ccncc21", "% Inhibition": -12, "Z score": 1.16},
      {"smiles": "Cc1cc(C(=O)N[C@H](c2c(C)nn(C)c2C)C(F)(F)F)cc(O)n1", "% Inhibition": -4, "Z score": 0.72},
      {"smiles": "Cc1ccc(F)cc1Cc1nc([C@H](O)c2ccccc2)nn1CCO", "% Inhibition": -6, "Z score": 0.68},
      {"smiles": "CCn1c(CC2CCN(c3nc4c(cc3C(N)=O)CCC4)CC2)n[nH]c1=O", "% Inhibition": -9, "Z score": 1.34},
      {"smiles": "Cc1ccc(-c2nc(CNC(=O)c3cncnc3C)[nH]c2-c2ccccn2)cc1", "% Inhibition": -3, "Z score": 0.46},
      {"smiles": "O=S(=O)(c1ccc(F)c(Cl)c1)N1CCn2nc([C@@H](O)CO)cc2C1", "% Inhibition": -7, "Z score": 1.35},
      {"smiles": "O=C(c1ccc(-c2cnc3nncn3c2)cc1)N1CCCCCC1", "% Inhibition": -26, "Z score": 2.74},
      {"smiles": "Cc1ccc(NC(=O)CS(=O)(=O)c2ccc3c(c2)S(=O)(=O)N=CN3)cc1", "% Inhibition": -7, "Z score": 1},
      {"smiles": "COc1ccc(NC(=O)N(C)Cc2cc(C)on2)cn1", "% Inhibition": 2, "Z score": -0.31},
      {"smiles": "Cc1cc2n(n1)CCCN2C(=O)CCC(=O)NCc1ccco1", "% Inhibition": -7, "Z score": 0.94},
      {"smiles": "C[C@@]1(C(=O)O)CCCN1C(=O)c1cccc2c1CCC2", "% Inhibition": -10, "Z score": 1.17},
      {"smiles": "C[C@@H](c1ccccn1)N(C)Cc1ccc(OCC(=O)N2CCCC2)cc1", "% Inhibition": -10, "Z score": 1.66},
      {"smiles": "O=C(O)C1CCN(C(=O)c2ccc(Oc3ccc(F)c(F)c3)cc2)CC1", "% Inhibition": -5, "Z score": 0.76},
      {"smiles": "COCCOc1ncccc1NC(=O)N1C2CCC1CC(=O)C2", "% Inhibition": 34, "Z score": -3.82},
      {"smiles": "CC1CC(C(=O)N2CCCc3cc[nH]c(=O)c32)CC(C)(C)C1", "note": "(stereo not given)", "% Inhibition": 2, "Z score": -0.33},
      {"smiles": "Cc1ccc(CNC(=O)CCCC(=O)NCc2ccccc2)o1", "% Inhibition": 40, "Z score": -5.22},
      {"smiles": "CCOc1ccccc1N1CCN(c2nc(=O)c3cn[nH]c3[nH]2)CC1", "% Inhibition": -5, "Z score": 0.85},
      {"smiles": "COCCN(CCOC)C(=O)Nc1cccnc1", "% Inhibition": 9, "Z score": -0.92},
      {"smiles": "CCOC(=O)c1nsc(NC(C)=O)n1", "% Inhibition": -24, "Z score": 2.84},
      {"smiles": "O=C(Cc1cccs1)N1CCC(Cn2c(C(F)(F)F)nc3ccccc32)CC1", "% Inhibition": 6, "Z score": -0.73},
      {"smiles": "COc1ccc(CC(=O)Nc2nc3c(s2)Cc2ccccc2-3)cc1C", "% Inhibition": 14, "Z score": -1.89},
      {"smiles": "CCOC(=O)c1cnc(NC(C)C)nc1N", "% Inhibition": -12, "Z score": 1.36},
      {"smiles": "CCc1nc([C@@H]2CN(Cc3ccccc3)CCO2)sc1C(=O)OC", "% Inhibition": -7, "Z score": 0.63},
      {"smiles": "CC1CCC(O)(CNC(=O)c2[nH]ccc2C2CC2)CC1", "note": "(stereo not given)", "% Inhibition": -3, "Z score": 0.57},
      {"smiles": "Cc1ccc(CN2CCN(C(=O)c3cnc(C4CC4)nc3C)CC2=O)cc1C", "% Inhibition": 5, "Z score": -0.94},
      {"smiles": "COc1cccc(-c2cc(C(=O)Nc3ccc(F)cc3)nc3cc(C(C)(C)C)nn23)c1", "% Inhibition": -5, "Z score": 0.75},
      {"smiles": "COc1ccc(CCN2C(=O)O[C@H]3CN(C(=O)c4cccnc4)C[C@H]32)cc1", "% Inhibition": -8, "Z score": 0.97},
      {"smiles": "CC(C)CNc1ncc(S(=O)(=O)N(C)CC[C@H](C)O)cc1Cl", "% Inhibition": 2, "Z score": -0.39},
      {"smiles": "CCCCc1nc(CN2CCC[C@@]3(CNC(=O)O3)C2)c[nH]1", "% Inhibition": 1, "Z score": -0.11},
      {"smiles": "COc1ccc(NC(=O)c2sc(-n3nc(C)c(Cl)c3C)nc2C)c(OC)c1", "% Inhibition": 1, "Z score": -0.22},
      {"smiles": "NC(=O)N1CCC[C@H]1C(=O)N1CCCCCCC1", "% Inhibition": -10, "Z score": 1.97},
      {"smiles": "O=C(O)Cn1nc(C2CC2)c2c(C(F)(F)F)cc(-c3cccs3)nc21", "% Inhibition": -48, "Z score": 5.64},
      {"smiles": "CCN1CCN(C(=O)CCc2nnc(Cc3cc(OC)ccc3OC)o2)CC1", "% Inhibition": -2, "Z score": 0.27},
      {"smiles": "Cc1csc(C[C@H](C)n2cc(Cl)cn2)n1", "% Inhibition": -7, "Z score": 1.03},
      {"smiles": "COC[C@]1(CNC(=O)c2cnc(C)nc2N)OCCc2ccccc21", "% Inhibition": 1, "Z score": -0.17},
      {"smiles": "C#Cc1cccc(NC(=O)NCCCOC)c1", "% Inhibition": 0, "Z score": 0.01},
      {"smiles": "CNC(=O)C[C@H]1CCN(C(=O)CCc2cnn(C)c2)C1", "% Inhibition": -6, "Z score": 1.06}
    ]}
  ]
}
